Source: paper PMC4336329 (PLoS ONE, 2015)
Among all 310,000 compounds or so, about 14,000 (4.5%) showed an effect of 50% or more. The effect is printed as a negative number. This is one part of the list.

molecular target: human ether-à-go-go-related gene (hERG) potassium channel (human, UniProt Q12809); assay: primary screen, population patch clamp on CHO cells stably expressing hERG
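Further: peak tail current of the secondary pulse compared with the same well before compound.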

Sequence of human ether-à-go-go-related gene (hERG) potassium channel (Q12809 whole entry, looked up): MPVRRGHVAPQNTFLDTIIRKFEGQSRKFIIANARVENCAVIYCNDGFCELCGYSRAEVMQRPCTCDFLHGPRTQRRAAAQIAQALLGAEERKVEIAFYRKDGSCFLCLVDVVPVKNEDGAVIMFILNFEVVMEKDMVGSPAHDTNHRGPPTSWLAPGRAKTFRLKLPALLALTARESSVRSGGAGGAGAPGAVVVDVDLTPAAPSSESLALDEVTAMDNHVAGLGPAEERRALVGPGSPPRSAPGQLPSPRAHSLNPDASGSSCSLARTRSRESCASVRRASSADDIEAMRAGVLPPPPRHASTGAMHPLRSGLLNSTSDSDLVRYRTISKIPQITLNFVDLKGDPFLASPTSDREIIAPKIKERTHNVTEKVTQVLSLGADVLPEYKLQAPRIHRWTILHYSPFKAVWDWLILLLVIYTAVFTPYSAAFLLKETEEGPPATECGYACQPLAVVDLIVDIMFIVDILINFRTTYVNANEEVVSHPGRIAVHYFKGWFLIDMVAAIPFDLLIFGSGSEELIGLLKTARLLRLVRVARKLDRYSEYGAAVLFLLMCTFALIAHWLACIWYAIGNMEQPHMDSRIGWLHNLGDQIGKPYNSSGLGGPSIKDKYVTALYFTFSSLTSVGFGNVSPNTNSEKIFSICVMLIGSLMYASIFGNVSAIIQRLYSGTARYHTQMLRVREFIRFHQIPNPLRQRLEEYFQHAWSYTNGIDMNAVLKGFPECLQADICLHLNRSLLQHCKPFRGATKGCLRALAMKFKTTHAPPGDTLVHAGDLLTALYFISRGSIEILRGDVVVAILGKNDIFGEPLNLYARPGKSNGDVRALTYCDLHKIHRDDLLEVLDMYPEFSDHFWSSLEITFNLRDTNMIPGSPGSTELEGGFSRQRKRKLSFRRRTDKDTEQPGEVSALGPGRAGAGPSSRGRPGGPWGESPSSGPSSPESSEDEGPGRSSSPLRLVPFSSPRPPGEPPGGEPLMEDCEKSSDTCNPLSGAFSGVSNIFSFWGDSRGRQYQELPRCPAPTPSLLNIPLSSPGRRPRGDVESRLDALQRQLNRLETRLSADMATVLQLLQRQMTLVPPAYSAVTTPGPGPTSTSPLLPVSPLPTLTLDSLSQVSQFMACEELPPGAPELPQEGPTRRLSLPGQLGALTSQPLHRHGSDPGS

| SMILES | hERG current change (%, negative = inhibition) at 10uM [%] |
| --- | --- |
| Cl.NCCCCCc1nnc(SCc2ccc(Cl)c(Cl)c2)o1 | -27.8 |
| CC(C)=NN1C(=O)c2ccccc2NC1(C)C | 26.9 |
| COc1ccc(C(=O)CC(c2ccccc2)C2CCCCC2=O)cc1 (stereo not shown) | 12.2 |
| COc1cccc(C(=O)NCC(=O)N2CCC(C)CC2)c1 | 15.4 |
| Cc1cccc(CSc2nc3sc(C)c(C)c3c(=O)n2Cc2ccco2)c1 | 15.5 |
| CCOc1cc(CNc2ccc3c(c2)CCC3)ccc1O | 10.8 |
| O=C(c1cc2c(s1)-c1ccccc1OC2)N1CCCC1 | -4.69 |
| COc1ccc(NC(=O)C2CCN(S(C)(=O)=O)CC2)cc1OC | 15.2 |
| c1ccc(-c2nc(-c3ccccn3)no2)cc1 | -1.66 |
| O=C(c1cc(Br)c[nH]1)N1CCSCC1 | 4.32 |
| CC(=O)C(C)Oc1ccc(Cc2ncc(C(F)(F)F)cc2Cl)cc1 (stereo not shown) | -16.5 |
| O=C(Nc1ccccc1)c1cc([N+](=O)[O-])ccc1N1CCNCC1 | -37.8 |
| OC(CNC1CCCCC1)c1ccccc1 (stereo not shown) | 12.1 |
| C#CCOC(=O)c1cc(Cl)c(=O)n(Cc2ccc(Cl)cc2Cl)c1 | -18.8 |
| CCCSc1nc(NCc2ccco2)c2c3c(sc2n1)COC(C)(C)C3 | -8.2 |
| COc1ccc(C2=NN(S(C)(=O)=O)C(c3cccs3)C2)cc1 (stereo not shown) | -1.23 |
| Cc1ccccc1NCC(=O)N=Nc1c(O)[nH]c2ccc([N+](=O)[O-])cc12 | 0.439 |
| CCCN1CCN(C(=O)c2oc3ccccc3c2NC(=O)C2CC2)CC1 | -42.6 |
| C=C(C)CN=c1scc(C)n1/N=C/c1ccco1 | -5.28 |
| O=c1cc(C(F)(F)F)[nH]c(=S)n1-c1ccccc1 | 35.2 |
| Cc1c(Cl)cnc(NC(=O)COC(=O)c2cccc(S(=O)(=O)N3c4ccccc4CC3C)c2)c1Cl (stereo not shown) | -7.49 |
| Cc1cccc(Cl)c1NC(=S)NCCc1ccccn1 | 11.9 |
| Cc1cc(Cl)c(S(=O)(=O)N2CCSCC2)cc1OCC(=O)NC1CCCCC1 | -11.4 |

| SMILES | hERG current change (%, negative = inhibition) at 10uM [%] |
| --- | --- |
| FC(F)(F)c1ccc(Cl)c(N/N=C/c2ccc(N3CCOCC3)s2)c1 | 16.7 |
| CCCc1nnc2c(N(C)S(=O)(=O)c3ccc(C)cc3)nc3ccccc3n12 | -43 |
| NNc1nc(-c2ccccc2)cc(-c2ccc(Br)cc2)n1 | 1.23 |
| CCCC1CCc2c(sc(NC(=O)OCC)c2C#N)C1 (stereo not shown) | 5.05 |
| CC1CCCCN1c1nnc(NC(=O)Cn2c(=O)oc3ccccc32)s1 (stereo not shown) | 18.3 |
| CCc1ccc(OCC(=O)NNC(=O)c2ccc(NC(=O)C3CC3)cc2)cc1 | 5.18 |
| COCCN1C(=O)C(O)=C(C(=O)c2cccs2)C1c1ccccc1 (stereo not shown) | 24.1 |
| Clc1ccccc1OCc1nc(-c2ccc(Br)o2)no1 | 0.169 |
| C[C@@]12CCC=C[C@H]1[C@H](c1ccoc1)N(Cc1ccccc1)C2=O | -8.15 |
| Cn1cccc2[nH]c(=O)nc1-2 | 15.3 |
| COC(=O)c1cc(NC(=O)c2nn(C)c(=O)c3ccccc23)cc(C(=O)OC)c1 | 9.47 |
| COc1ccccc1C1CN(c2ccc(F)cc2F)N=C1c1cccs1 (stereo not shown) | -10.3 |
| COCCCn1nnnc1SCC(=O)N1CCN(C(=O)c2ccco2)CC1 | 11.2 |
| CCC(=O)N(Cc1cc2cccc(C)c2[nH]c1=O)c1ccccc1OC | -4.31 |
| CC(C)CC(=O)N1CCN(C(=O)c2cccc(F)c2)CC1 | 0.0457 |
| S=C(NCc1ccncc1)Nc1cc(Cl)cc(Cl)c1 | -38.3 |
| O=[N+]([O-])c1ccc(NC(=S)N2CCc3ccccc3C2)cc1 | -2.68 |
| O=S1(=O)NC2CCCCCN2c2ccc(F)cc21 (stereo not shown) | -11.4 |
| O=C(c1ccccc1)N1CCCOC1c1ccccc1 (stereo not shown) | -2.84 |
| COc1ccc(C(=O)CNc2ccc(C)cc2C)cc1 | 15.7 |
| O=C(COc1coc(CN2CCN(c3ccccc3F)CC2)cc1=O)NCC1CCCO1 (stereo not shown) | 1.33 |
| N#C/C(=C\c1ccccc1[N+](=O)[O-])c1nc(C2CC2)cs1 | 4.89 |
| COc1ccc(CNC(=O)COc2ccc(S(=O)(=O)N3CCCCC3)cc2Cl)cc1 | -10.1 |
